Assay results taken from the supplement of paper PMC11383711.
Some of the results follow. Binding of human antibodies (heavy:light variable regions, tested as scFv in one mRNA-display pool) to influenza hemagglutinin, with or without the stem antibody CR9114 bound first. Score = (mean enrichment − median) / interquartile range of that screen; higher = more enriched, 0 = typical non-binder. Active = above the paper's cut-off per screen: stems 28; unblocked H1 Solomon Islands 5, H1 Michigan 3, H3 5, H5 19, H7 2.85, both B 5; blocked 9, 7, H5 10, H7 10, B Phuket 10, B Lee 11.5. Scores are scaled within each screen and are no affinities; replicates correlate at about 0.6 to 0.9, and antibodies rare in the pool are noisier.

B1: W85-1E01 (protein)
chain 1: EVQLVESGGGLVRPGRSLTLSCATSGFTFGDYGLSWVRQAPGKGLEWVGFIRSKPYGATTEYAASVKGRFTISRDDSKSIAYLQMNSLKIEDTAVYFCGRDPHSGSYLDYWGQGTLVTVSS
chain 2: QSALTQPASVSGSPGQSITIFCTGTSSDVGGYNYVSWYQQHPGKAPKVMIYEVNNRPSGVSNRFSGSKSGNTASLTISGLQSEDEADYYCSSYTGSSTYVFGSGTKVTV
B2: 051-10-4G03 (protein)
chain 1: EVQLVESGGGLVQPGRSLRLSCTASGFTFGDYAMSWVRQAPGKGLEWVGFIRSKRYGGTTEYAASVKDRFTISRDDSKSIASLQMSSLKRDDTAVYYCTRDLVGATTFFLYGMDVWGQGTTVTVSS
chain 2: DIQMTQSPSSVSASIGDRVTITCRASQDVSTWLAWYQQKPGKAPKLLIYTASSLQSGVPSRFSGSGSGTDFTLTISSLQPEDFATYYCQQANSFPLTFGGGTKVEIK
B3: W85-2B08 (protein)
chain 1: EVQLVESGGGLVQAGRSLRLSCTASGFTFGDYGMSWVRQAPGKGLEWVGFIRSKAYGGTTDFAASVKGRFIISRDDSKSIAYLQMHSLKTEDTAVYYCCRDPYSGSYIDSWGRGTLVTVSS
chain 2: QSALTQPASVSGSPGQSITISCTGTSSDIGGFKYVSWYQQHPGKAPKVMIYEVSDRPSGVSNRFSGSKSGNTASLTISGLQAEDEADYYCSSYTSSSTFVFGTGTKVTVL
B4: W85-2F05 (protein)
chain 1: EVQLVESGGGVVQPGRSLRLSCAASGFSFSSYAMHWVRQAPGKGLEWVAVISYDGSNKYYADSVKGRFTISRDNSKITLFLQMNSLRPEDTAIYYCARTTDYNVYYSGMDVWGQGTTVTVSS
chain 2: QSALTQPASVSGSPGQSITISCTGTSTDIGDYNYVSWYQQHPGRAPKLIIYEVTNRPSGVSNRFSGSKSGYTASLSISGLQAEDEADYYCSSYADGSTPYVFGSATKVT
B5: AG2-F02 (protein)
chain 1: VQLVESGGGVVQPGRSLSLSCAASGFTFSNYAMHWVRQAPGKGLEWIFHISYDSSNRYSADSVKGRFTLSRDNSKNTLSLQMDSLKVEDTAVYYCARGEVINGPLYYFDYWGHGTLVTVSS
chain 2: EIVLTQSPATLSLSPGERATLSCRASQSVRYFLAWYQQKPGQAPKLLISDASNRATGIPARFSGSGFGTDFTLTIDNLEPDDSAVYYCQQRSTWAHITFGGGTKVEIK
B6: W85-2F12 (protein)
chain 1: QVQLQESGPGLVKPSETLSLTCSVSGGSLSSSTYYWGWIRQPPGKGLEWIGSVYYTGSTDYNPSLRSRVSISIDTSKNQFSLKMSSVTAADTAVFYCARYLQWLAPAPLDCWGQGTLVTVSS
chain 2: DIVMTQSPDSLAVSLGERATINCKSSQSVLYSSINKNYLAWYQQKPGQPPKLLIYWASTRESGVPGRFSGSGSGTDFTLTIGSLQAEDVAVYYCQQYYSAPLTFGGGTKVEMK
B7: 01.ae.01 (protein)
chain 1: QVQLQQWGAGLLKPSEALSLSCAVYGGSFSDYYWNWIRQPPGKGLEWIGEIDNFGSTKYHPSLKSRVTISVDTSKNQFSLKLTSVTAADTAVYYCARVRRPIVAHYYGLDVWGQGTTVTVSS
chain 2: DIQMTQSPSSLSASIGDRVTITCRASQGISNYLAWYQQRPGKAPKLVIYAASTLQSGVPSRFSGSGSGTYFTLTISSLQPEDFATYYCQQLNTYPRTFGPGTKVDI
B8: 014-10-1B04 (protein)
chain 1: QLQESGPGLVKPSETLSLTCTVSGGSISGTSYYRVWIRQPPGKGLEWIGSIYYSGSTHYSPSLKSRVTITEDTSKNQFSLKMISVTAADAAVYYCATGPNFEAFDLWGQGTMVTVSS
chain 2: QSALTQPRSVSGSPGQSVTISCTGTSSDVGGYNYVSWYQQHPGKAPKLMIYDVSNRPSGVPDRFSGSKSGNTASLTISGLQAEDEADYYCCSYVGSNTFYVIFGGGTKLTVL
B9: C1-2D03 (protein)
chain 1: VQLVESGGGLVKPGGSLRLSCAASGFTFSNAWMSWVRQAPGKGLEWVGRIQSQHEGGTTDYAAPVKGRFTISRDESKNTLYLQMNSLKTEDTAVYYCTTASNPYNWNGPYFDYWGQGTLVTVSS
chain 2: DIQMTQSPSTLSASVGDRVTITCRASQSIGTWLAWYQQKPGKAPKLLIYKASSLESGVPSRFSGSRSGTEFTLTISSLQPDDFATYYCQQYNVYSPMYTFGQGTKVEIK
B10: R95-1G06 (protein)
chain 1: EVQLVESGGGLVRPGGSLRLSCAASGFTFNSYGLNWVRQAPGKGLEWVSSIGSSFGYIYYADSVKGRFTISRDNAKSSLFLQMNSLRVEDTAVYYCTRDGDGYARFDHWGHGTLVSVSS
chain 2: SYELTQPPSVSVAPGQTARITCGGNSIGSKSVHWYQQKPGQAPVLVVYDDSDRPSGIPERFSGSNSGDTATLTISRVEAGDEADYYCQVWDSRSDHVVFGGGTKLTVL
B11: 042-10-4C06 (protein)
chain 1: EVQLVESGGGLVKPGGSLRLSCEVSGLIFKNAWMTWVRQAPGMGLEWVGRIKSKSEGGTADYGTPVRDRFIISRDDSKNMVYLQMDSLQTEDTAVYYCATIGIDYNSRSGYFSFDYWGQGALVTVSS
chain 2: EIVLTQSPDTLSLSPGERATLFCRASQSVGNSLAWYRQKLGQPPRLLIYDASIRATGIPARFTGSGSGTDFTLTISSLEPEDFAVYYCQQRANWAPFTFGRGTKVEIK
B12: R95-1A10 (protein)
chain 1: EMALVESGGTVVQPGGSLTLSCEVSGFTFDDYAMHWVRQVPGKGLEWVSLISWDAGNTNYADSVKGRFNISRDNTRSILYLQMSSLRPEDTAIYYCTKDDGGGNYDYYRYMDVWGRGTTVTVS
chain 2: QSALTQPASESGSLGQSITISCTGTSGDVGGYNRVSWYQQHPGKAPRLVIYEGSKRPSGVSSRFSGSKSGNTASLTITGLQAEDEAEYFCSSYAGSITFVFGTGTKVNVL

Molecular target: Influenza A H1N1 A/Michigan/45/2015 hemagglutinin ectodomain
Assay: mRNA display binding score; higher = more enriched on the antigen
Conditions: antigen blocked with: 2 µM CR9114 IgG
Procedure: (§1)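 A pool of natively paired antibodies, displayed as scFv on mRNA, was selected once on antigen-coated beads and sequenced before and after; two replicates.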

Binder	mRNA display binding score
B1	inactive: -0.00758
B2	inactive: -0.207
B3	inactive: -0.278
B4	inactive: -0.228
B5	inactive: -0.216
B6	inactive: -0.101
B7	inactive: -0.293
B8	active: 26.9
B9	inactive: -0.277
B10	inactive: -0.287
B11	inactive: 2.94
B12	inactive: -0.577

Same assay, conditions: antigen blocked with: nothing

Binder	mRNA display binding score
B1	inactive: -0.585
B2	inactive: -0.195
B3	inactive: -0.47
B4	inactive: -0.166
B5	inactive: 0.972
B6	inactive: -0.378
B7	inactive: -0.617
B8	active: 5.41
B9	inactive: 0.0065
B10	inactive: -0.374
B11	inactive: 0.00948
B12	inactive: -0.738

Molecular target: Influenza A H1N1 A/Solomon Islands/3/2006 hemagglutinin ectodomain
Assay: as above
Conditions: antigen blocked with: 2 µM CR9114 IgG
Procedure: as §1

Binder	mRNA display binding score
B1	inactive: -0.0346
B2	inactive: 0.456
B3	inactive: -0.339
B4	inactive: -0.283
B5	inactive: 1.15
B6	inactive: 0.0643
B7	inactive: -0.408
B8	inactive: 0.459
B9	inactive: -0.174
B10	inactive: -0.7
B11	inactive: -0.216
B12	inactive: -0.493

Same assay, conditions: antigen blocked with: nothing

Binder	mRNA display binding score
B1	inactive: 0
B2	inactive: -0.524
B3	inactive: -0.276
B4	inactive: 0.664
B5	inactive: 0.869
B6	inactive: -0.428
B7	inactive: -0.111
B8	inactive: 1.33
B9	inactive: 1.1
B10	inactive: -0.25
B11	inactive: -0.336
B12	inactive: -0.55

Molecular target: Influenza A H3N2 A/Singapore/INFIMH-16-0019/2016 hemagglutinin ectodomain
Assay: as above
Conditions: antigen blocked with: nothing
Procedure: as §1

Binder	mRNA display binding score
B1	inactive: -0.331
B2	inactive: -0.401
B3	inactive: 0.0487
B4	inactive: -0.437
B5	inactive: -0.505
B6	inactive: -0.55
B7	inactive: -0.303
B8	inactive: 0.294
B9	inactive: 0.0648
B10	inactive: -0.0577
B11	inactive: -0.529
B12	inactive: 0.207

Molecular target: Influenza A H5N1 A/Qinghai/1A/2005 hemagglutinin ectodomain
Assay: as above
Conditions: antigen blocked with: 2 µM CR9114 IgG
Procedure: as §1

Binder	mRNA display binding score
B1	inactive: -0.775
B2	inactive: -0.0602
B3	inactive: -0.5
B4	inactive: 0.474
B5	inactive: 1.35
B6	inactive: -0.14
B7	inactive: -0.704
B8	inactive: -0.717
B9	inactive: 1.91
B10	inactive: -0.603
B11	inactive: -0.678
B12	inactive: -0.559

Same assay, conditions: antigen blocked with: nothing

Binder	mRNA display binding score
B1	inactive: -0.382
B2	inactive: -0.0734
B3	inactive: -0.582
B4	inactive: 1.99
B5	inactive: -0.216
B6	inactive: -0.473
B7	inactive: -0.57
B8	inactive: 2.46
B9	inactive: 5.7
B10	inactive: -0.601
B11	inactive: -0.301
B12	inactive: -0.481

Molecular target: Influenza A H7N9 A/Shanghai/2/2013 hemagglutinin ectodomain
Assay: as above
Conditions: antigen blocked with: 2 µM CR9114 IgG
Procedure: as §1

Binder	mRNA display binding score
B1	inactive: 1.15
B2	inactive: 0.516
B3	inactive: 0.0332
B4	inactive: -1.24
B5	inactive: 1.39
B6	inactive: -0.338
B7	inactive: -0.639
B8	inactive: 2.98
B9	inactive: -0.412
B10	inactive: -1.3
B11	inactive: -0.415
B12	inactive: -0.858

Same assay, conditions: antigen blocked with: nothing

Binder	mRNA display binding score
B1	inactive: -0.282
B2	inactive: -0.308
B3	inactive: -0.522
B4	inactive: 0.068
B5	inactive: 1.14
B6	inactive: -0.0935
B7	inactive: -0.47
B8	inactive: 0.00296
B9	inactive: -0.366
B10	inactive: -0.507
B11	inactive: -0.35
B12	inactive: -0.775

Molecular target: Influenza B/Lee/1940 hemagglutinin ectodomain
Assay: as above
Conditions: antigen blocked with: 2 µM CR9114 IgG
Procedure: as §1

Binder	mRNA display binding score
B1	inactive: 0.0853
B2	inactive: -0.181
B3	inactive: -0.141
B4	inactive: -1.37
B5	inactive: -0.586
B6	inactive: -0.253
B7	inactive: -0.59
B8	inactive: 0.364
B9	inactive: 1.79
B10	inactive: -0.292
B11	inactive: -0.224
B12	inactive: 0.415

Same assay, conditions: antigen blocked with: nothing

Binder	mRNA display binding score
B1	inactive: 0.312
B2	inactive: -0.247
B3	inactive: -0.364
B4	inactive: -0.0419
B5	inactive: -0.0409
B6	inactive: -0.311
B7	inactive: -0.165
B8	inactive: 2.79
B9	active: 80.4
B10	inactive: -0.158
B11	inactive: -0.396
B12	inactive: -0.227

Molecular target: Influenza B/Phuket/3073/2013 hemagglutinin ectodomain
Assay: as above
Conditions: antigen blocked with: 2 µM CR9114 IgG
Procedure: as §1

Binder	mRNA display binding score
B1	inactive: 0.534
B2	inactive: -0.402
B3	inactive: -0.42
B4	active: 12.4
B5	inactive: -0.0518
B6	inactive: -0.544
B7	inactive: -0.42
B8	inactive: -0.246
B9	active: 23.4
B10	inactive: -0.456
B11	inactive: -0.175
B12	active: 12.6

Same assay, conditions: antigen blocked with: nothing

Binder	mRNA display binding score
B1	inactive: 0.0787
B2	inactive: -0.18
B3	inactive: 0.0505
B4	active: 11.3
B5	inactive: 1.22
B6	inactive: -0.0393
B7	inactive: -0.361
B8	inactive: 2.16
B9	active: 47.6
B10	inactive: -0.386
B11	inactive: -0.289
B12	inactive: 4.94
